{"source": "paper PMC4336329", "about": "(PLoS ONE, 2015)", "note": "About 2,200 (0.71%) of roughly 310,000 compounds showed an effect of 50% or more. Effects have a minus sign here. The list shows a part of the results."}
{"target": "human ether-à-go-go-related gene (hERG) potassium channel (human, UniProt Q12809)", "sequence (Q12809 whole entry, looked up)": "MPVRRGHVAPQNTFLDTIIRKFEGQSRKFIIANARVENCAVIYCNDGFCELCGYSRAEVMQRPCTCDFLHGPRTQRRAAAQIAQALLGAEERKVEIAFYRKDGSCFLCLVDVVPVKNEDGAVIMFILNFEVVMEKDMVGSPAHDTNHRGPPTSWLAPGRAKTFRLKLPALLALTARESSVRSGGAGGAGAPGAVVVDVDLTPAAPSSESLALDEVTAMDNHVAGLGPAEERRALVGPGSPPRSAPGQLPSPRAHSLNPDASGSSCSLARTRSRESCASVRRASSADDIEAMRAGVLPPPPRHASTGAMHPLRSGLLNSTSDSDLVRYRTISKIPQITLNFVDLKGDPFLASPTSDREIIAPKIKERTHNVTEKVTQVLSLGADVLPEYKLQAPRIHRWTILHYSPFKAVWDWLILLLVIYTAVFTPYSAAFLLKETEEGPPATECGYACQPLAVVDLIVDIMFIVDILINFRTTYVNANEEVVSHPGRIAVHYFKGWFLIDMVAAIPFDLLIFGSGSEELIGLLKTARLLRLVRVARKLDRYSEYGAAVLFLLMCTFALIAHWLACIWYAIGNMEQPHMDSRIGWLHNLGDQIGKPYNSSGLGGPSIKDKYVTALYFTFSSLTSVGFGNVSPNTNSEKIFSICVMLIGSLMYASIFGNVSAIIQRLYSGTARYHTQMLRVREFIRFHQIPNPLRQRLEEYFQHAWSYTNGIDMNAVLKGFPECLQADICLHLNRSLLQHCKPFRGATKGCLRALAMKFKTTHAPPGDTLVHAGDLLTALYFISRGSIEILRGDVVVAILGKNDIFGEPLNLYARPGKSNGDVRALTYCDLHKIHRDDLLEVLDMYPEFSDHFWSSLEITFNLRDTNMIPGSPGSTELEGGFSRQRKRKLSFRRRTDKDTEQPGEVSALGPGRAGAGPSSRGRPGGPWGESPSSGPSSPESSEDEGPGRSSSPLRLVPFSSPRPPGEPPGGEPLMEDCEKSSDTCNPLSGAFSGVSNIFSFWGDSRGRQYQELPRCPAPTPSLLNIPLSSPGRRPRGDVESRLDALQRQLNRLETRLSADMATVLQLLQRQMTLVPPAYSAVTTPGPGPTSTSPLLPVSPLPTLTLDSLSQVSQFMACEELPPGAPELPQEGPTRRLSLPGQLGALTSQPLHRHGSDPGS", "assay": "primary screen, population patch clamp on CHO cells stably expressing hERG", "units": {"hERG current change (%, negative = inhibition) at 1uM": "%"}}
{"smiles": "CCOC(=O)C1(Cc2cccc(OC)c2)CCN(CCO)CC1", "hERG current change (%, negative = inhibition) at 1uM": 2.3}
{"smiles": "Cc1ccc(CNc2nc3ccc(C)cc3n3cnnc23)cc1", "hERG current change (%, negative = inhibition) at 1uM": 6.78}
{"smiles": "CC(C)CN(C(=O)C1CCCO1)C1CCS(=O)(=O)C1", "note": "(stereo not shown)", "hERG current change (%, negative = inhibition) at 1uM": 6.58}
{"smiles": "CN(Cc1ccc(Br)s1)C(=O)CNC(=O)c1ccc2c(c1)OCO2", "hERG current change (%, negative = inhibition) at 1uM": 5.14}
{"smiles": "Nn1c(SCC(=O)N2CCOCC2)nnc1C1CC1", "hERG current change (%, negative = inhibition) at 1uM": 24.7}
{"smiles": "Cc1cc(C)nc(NC(N)=NC(C)c2ccccc2)n1", "note": "(stereo not shown)", "hERG current change (%, negative = inhibition) at 1uM": 11.2}
{"smiles": "c1cnn(-c2cc(N3CCOCC3)ncn2)c1", "hERG current change (%, negative = inhibition) at 1uM": 19.2}
{"smiles": "O=C(COC(=O)c1nc(Cl)ccc1Cl)c1ccccc1Cl", "hERG current change (%, negative = inhibition) at 1uM": -0.146}
{"smiles": "CC(C)Oc1ccc(Cn2c(=O)sc3ccccc32)cc1", "hERG current change (%, negative = inhibition) at 1uM": 6.56}
{"smiles": "O=C(CO/N=C/c1ccc(OC(F)F)cc1)N1CCc2ccccc21", "hERG current change (%, negative = inhibition) at 1uM": 4.49}
{"smiles": "O=C(CN1C(=O)C(=O)N(Cc2ccccc2)C1=O)Nc1ccc(F)c(Cl)c1", "hERG current change (%, negative = inhibition) at 1uM": 11}
{"smiles": "Clc1ncc(CSc2ccccc2)s1", "hERG current change (%, negative = inhibition) at 1uM": 5.7}
{"smiles": "CCN(CC)S(=O)(=O)c1cccc(NC(=O)c2ccc(SC)cc2OC)c1", "hERG current change (%, negative = inhibition) at 1uM": -4.35}
{"smiles": "CCC1CN(C(=O)N2CCC(C(=O)NCc3cccc(OC)c3OC)CC2)c2cc(C)ccc2O1", "note": "(stereo not shown)", "hERG current change (%, negative = inhibition) at 1uM": 11.1}
{"smiles": "N#Cc1c(N2CCOCC2)nc(N2CCCCC2)c2c1CCN(C1CCCCC1)C2", "hERG current change (%, negative = inhibition) at 1uM": 2.19}
{"smiles": "O=[N+]([O-])c1ccc(N2CCN(C(=S)Nc3ccc(F)cc3)CC2)cc1", "hERG current change (%, negative = inhibition) at 1uM": -23.8}
{"smiles": "Cc1cc2oc(=O)cc(CSc3nnc(C)n3N)c2cc1C(C)C", "hERG current change (%, negative = inhibition) at 1uM": 6.87}
{"smiles": "CC1CC(C)CN(CCOc2ccc(Cl)cc2Cl)C1.O=C(O)C(=O)O", "note": "(stereo not shown)", "hERG current change (%, negative = inhibition) at 1uM": -35.5}
{"smiles": "O=C(c1cccs1)N1CCN(C(=O)c2ccco2)c2ccccc2C1", "hERG current change (%, negative = inhibition) at 1uM": 5.51}
{"smiles": "Cc1c(C(=O)Nc2nc(-c3ccccn3)cs2)oc2ccccc12", "hERG current change (%, negative = inhibition) at 1uM": 13.1}
{"smiles": "Cc1cc(C(=O)NNC(=O)c2ccccc2F)c2ccccc2n1", "hERG current change (%, negative = inhibition) at 1uM": 9.03}
{"smiles": "O=C(CNC1CCCCC1)Nc1cccc([N+](=O)[O-])c1", "hERG current change (%, negative = inhibition) at 1uM": 9.45}
{"smiles": "CCOc1ccc2nc(NC3=NC(C)(C)C=C(C)N3)nc(C)c2c1", "hERG current change (%, negative = inhibition) at 1uM": -3.64}
{"smiles": "c1ccc2c(CNc3ccc(CNc4ncn[nH]4)cc3)cccc2c1", "hERG current change (%, negative = inhibition) at 1uM": 10.7}
{"smiles": "O=C(O)Cc1sc(-c2cccnc2)nc1-c1ccc(Br)cc1", "hERG current change (%, negative = inhibition) at 1uM": 32.5}
{"smiles": "CC(C(O)c1ccccc1)N(C)CCn1cnc2c1c(=O)n(C)c(=O)n2C", "note": "(stereo not shown)", "hERG current change (%, negative = inhibition) at 1uM": 17.9}
{"smiles": "CCN(CC(=O)NCc1ccc(Cl)cc1)C(=O)c1cnc(Cl)c(Cl)c1", "hERG current change (%, negative = inhibition) at 1uM": 12.1}
{"smiles": "CCOc1ccc(CCNC(=O)CCS(=O)(=O)c2ccc(Cl)cc2)cc1OCC", "hERG current change (%, negative = inhibition) at 1uM": 6.98}
{"smiles": "CCc1cc2c3c(c1)C1(C(=O)N3C(C)(C)C=C2C)C(C#N)=C(N)Oc2[nH]c(=O)[nH]c(=O)c21", "note": "(stereo not shown)", "hERG current change (%, negative = inhibition) at 1uM": 16}
{"smiles": "CC(=O)c1cccc(NC2c3ncccc3C(=O)N2Cc2ccco2)c1", "note": "(stereo not shown)", "hERG current change (%, negative = inhibition) at 1uM": -0.704}
{"smiles": "COc1ccc(-c2noc(CCC(=O)NC3CCCCCC3)n2)cc1", "hERG current change (%, negative = inhibition) at 1uM": 12.5}
{"smiles": "Cc1ccc(-n2ncc3c(NCc4cccnc4)ncnc32)cc1C", "hERG current change (%, negative = inhibition) at 1uM": 0.0268}
{"smiles": "O=S(=O)(NCCN1CCCC1)c1cccc2cccnc12", "hERG current change (%, negative = inhibition) at 1uM": 7.17}
{"smiles": "COC(=O)c1cccnc1-n1c(=O)c2cccnc2n(Cc2ccc(Cl)cc2)c1=O", "hERG current change (%, negative = inhibition) at 1uM": -3.39}
{"smiles": "Cc1ccc(-c2cc(-c3ccccc3)nc(N)c2C#N)o1", "hERG current change (%, negative = inhibition) at 1uM": 11.3}
{"smiles": "COC(=O)CCCCCCCCCCN1CCCCC1", "hERG current change (%, negative = inhibition) at 1uM": 4.36}
{"smiles": "CC(C)c1ccc(N=C(N)N=C(N)N)cc1.Cl", "hERG current change (%, negative = inhibition) at 1uM": -7.21}
{"smiles": "Cc1cc(C(=O)CSc2nc3ccccc3[nH]2)c(C)n1Cc1ccco1", "hERG current change (%, negative = inhibition) at 1uM": 22.3}
{"smiles": "CCOc1ccc(-c2[nH]ncc2Oc2cccc(OC)c2)c(O)c1", "hERG current change (%, negative = inhibition) at 1uM": -3.96}
{"smiles": "N#Cc1c(F)cccc1NCc1cccs1", "hERG current change (%, negative = inhibition) at 1uM": 10}
{"smiles": "Cc1ccc(/C=C/C(=O)c2ccccc(=O)c2O)cc1C", "hERG current change (%, negative = inhibition) at 1uM": -3.33}
{"smiles": "Cc1c(C(=O)N2CCOCC2)c(S(=O)(=O)N2CCN(c3ccc(Cl)cc3)CC2)c(C)n1C", "hERG current change (%, negative = inhibition) at 1uM": -15.3}
{"smiles": "CCCCC(CC)COC(=O)CCCCC(=O)OCC(CC)CCCC", "note": "(stereo not shown)", "hERG current change (%, negative = inhibition) at 1uM": 14.1}
{"smiles": "O=C(NC1CCCCCCC1)c1cccc(Cl)c1", "hERG current change (%, negative = inhibition) at 1uM": 14.4}
{"smiles": "CSc1nc2ncc(-c3ccsc3)c(N)n2n1", "hERG current change (%, negative = inhibition) at 1uM": 11.6}
{"smiles": "COc1ccccc1C(=O)COC(=O)CNC(=O)c1ccc(Br)o1", "hERG current change (%, negative = inhibition) at 1uM": 3.56}
{"smiles": "COc1ccc(C(=O)Nc2cccc(-c3cc4ccccc4oc3=O)c2)cc1[N+](=O)[O-]", "hERG current change (%, negative = inhibition) at 1uM": 5.3}
{"smiles": "CC(=O)CSc1ncnc2c1oc1ccccc12", "hERG current change (%, negative = inhibition) at 1uM": 11.7}
{"smiles": "COCCNC(=O)C(c1ccco1)N(C(=O)Cn1nnc2ccccc21)c1cc(C)ccc1C", "note": "(stereo not shown)", "hERG current change (%, negative = inhibition) at 1uM": 0.501}
{"smiles": "COC(=O)c1cccc(C23CC4(C2)[C@H](CN(Cc2cccnc2)[C@@H]4c2ccccc2)C3c2ccccc2)c1", "note": "(stereo partly shown)", "hERG current change (%, negative = inhibition) at 1uM": 8.55}
{"smiles": "S=C(Nc1ccc2snnc2c1)N1CCN(c2ccccn2)CC1", "hERG current change (%, negative = inhibition) at 1uM": 10}
{"smiles": "COC(=O)COC(=O)c1ccc(-n2nnnc2SC)cc1", "hERG current change (%, negative = inhibition) at 1uM": 11.1}
{"smiles": "O=C(Nc1ccc(NC(=O)c2ccc(Cl)cc2Cl)cc1)c1cccs1", "hERG current change (%, negative = inhibition) at 1uM": 12.9}
{"smiles": "O=C(NCc1ccco1)C1CCN(C(=O)Cc2ccccc2)CC1", "hERG current change (%, negative = inhibition) at 1uM": 11.3}
{"smiles": "COc1ccc(-c2cc(-c3ccc(C)cc3)nc(SCc3nnc(-c4ccccc4)o3)c2C#N)cc1OC", "hERG current change (%, negative = inhibition) at 1uM": 8.98}
{"smiles": "Cc1ccc(C)c(OCCn2cc(/C=C(\\C#N)C(=O)NCc3cccs3)c3ccccc32)c1", "hERG current change (%, negative = inhibition) at 1uM": 10.9}
{"smiles": "Cc1oc2cc(O)ccc2c(=O)c1-c1nncn1-c1ccccc1", "hERG current change (%, negative = inhibition) at 1uM": 11.9}
{"smiles": "CNC(=S)Nc1cc(C)ccc1OC(F)F", "hERG current change (%, negative = inhibition) at 1uM": 9.12}
